# Assay results: article PMC4336329 (PLoS ONE, 2015)
# Screen size: about 310,000 compounds; about 2,200 (0.71%) showed an effect of 50% or more. The effect is printed as a negative number. This is one part of the list.
# Molecular target: human ether-à-go-go-related gene (hERG) potassium channel (human, UniProt Q12809)
# Assay: primary screen, population patch clamp on CHO cells stably expressing hERG
# Sequence of human ether-à-go-go-related gene (hERG) potassium channel (Q12809 whole entry, looked up): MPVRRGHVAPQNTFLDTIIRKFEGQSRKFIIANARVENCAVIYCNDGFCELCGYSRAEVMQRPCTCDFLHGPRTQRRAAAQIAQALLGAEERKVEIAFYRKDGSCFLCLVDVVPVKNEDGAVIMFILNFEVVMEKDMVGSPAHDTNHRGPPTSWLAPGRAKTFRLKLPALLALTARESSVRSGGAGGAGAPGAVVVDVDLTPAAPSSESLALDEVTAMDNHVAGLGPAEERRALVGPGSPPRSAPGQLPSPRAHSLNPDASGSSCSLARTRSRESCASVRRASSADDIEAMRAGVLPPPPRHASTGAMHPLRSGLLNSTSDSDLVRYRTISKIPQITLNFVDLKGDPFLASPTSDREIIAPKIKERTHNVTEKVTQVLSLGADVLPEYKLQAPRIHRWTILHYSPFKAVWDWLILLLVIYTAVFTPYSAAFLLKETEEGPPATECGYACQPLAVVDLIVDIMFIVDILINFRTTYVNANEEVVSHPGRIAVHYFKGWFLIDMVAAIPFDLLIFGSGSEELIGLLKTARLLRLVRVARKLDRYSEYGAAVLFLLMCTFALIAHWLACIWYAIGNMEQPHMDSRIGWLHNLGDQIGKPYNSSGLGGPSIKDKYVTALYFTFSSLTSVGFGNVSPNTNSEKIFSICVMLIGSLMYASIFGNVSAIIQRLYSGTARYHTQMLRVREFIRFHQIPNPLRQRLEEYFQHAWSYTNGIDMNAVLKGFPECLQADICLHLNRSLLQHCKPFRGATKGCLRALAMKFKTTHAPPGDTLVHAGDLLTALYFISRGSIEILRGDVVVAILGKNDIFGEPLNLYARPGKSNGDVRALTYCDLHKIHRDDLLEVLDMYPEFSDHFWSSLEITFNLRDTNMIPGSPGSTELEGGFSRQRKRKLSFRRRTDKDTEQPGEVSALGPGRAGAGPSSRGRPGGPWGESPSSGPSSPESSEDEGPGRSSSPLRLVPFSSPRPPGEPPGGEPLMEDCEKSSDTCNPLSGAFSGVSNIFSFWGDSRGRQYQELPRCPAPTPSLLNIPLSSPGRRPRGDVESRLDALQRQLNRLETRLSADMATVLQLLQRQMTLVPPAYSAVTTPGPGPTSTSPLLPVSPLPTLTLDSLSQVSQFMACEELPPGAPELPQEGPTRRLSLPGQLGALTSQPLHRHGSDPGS
row,Structure (SMILES),"hERG current change (%, negative = inhibition) at 1uM [%]"
1,CCn1cc(C(=O)NC(=S)Nc2sc3c(c2C(=O)OC)CCCCCC3)cn1,16.2
2,CCOC(=O)c1ccc(NC(=S)NCCCN2CCCCC2)cc1,-5.8
3,CCOc1ccc(/C=N/NC(=O)c2nnn(-c3nonc3N)c2-c2cccs2)cc1,14.2
4,CCC(=O)Nc1ccc(N/C(N)=N/c2nc(C)cc(C)n2)cc1,5.28
5,NC(=O)c1ccc(C23CC4CC(CC(C4)C2)C3)o1,10.8
6,Cc1oc(-c2ccccc2)nc1C(=O)Nc1nccs1,15.7
7,NC(=NCCc1ccc(Cl)cc1)NS(=O)(=O)c1ccccc1,9.74
8,Cc1c(Cl)cccc1NC(=O)CCN1CCCCCC1,9.3
9,CS(=O)(=O)N(CC(=O)NCC1CCCO1)c1cccc([N+](=O)[O-])c1 (stereo not drawn),11.6
10,CC(C)c1ccc(C(=O)CC2(O)C(=O)N(CN3CCOCC3)c3ccccc32)cc1 (stereo not drawn),6.82
11,O=C1C=C(c2ccccc2)OC2(CCCC2)O1,-20.8
12,Cc1csc2nc(COC(=O)c3ccc(Cl)c([N+](=O)[O-])c3)cc(=O)n12,-11.2
13,Cc1cc(C)c2nc(SC(C)C#N)cc(C)c2c1 (stereo not drawn),12
14,CCOc1ccccc1N1C(=O)CC(N(O)c2ccccc2)C1=O (stereo not drawn),12.7
15,Cc1ccc(S(=O)(=O)CC(=O)c2ccc3c(c2)OCCO3)cc1,6.35
16,O=C(O)CC1(CC(=O)Nc2cccc(C(F)(F)F)c2)CCCC1,10
17,O=[N+]([O-])c1cnn(-c2nc(-c3ccco3)cc(C(F)(F)F)n2)c1,4.06
18,CN(C)c1ccc(-c2nc3ccccn3c2/N=C/c2ccc(Br)cc2)cc1,13.2
19,NC(=O)c1ccc(Sc2nnc(-c3cccs3)n2CC2CCCO2)c([N+](=O)[O-])c1 (stereo not drawn),8.36
20,CCCN(CC(=O)Nc1ccc(F)c(F)c1F)CC(=O)Nc1c(C)n(C)n(-c2ccccc2)c1=O,5.46
21,CC1CCCN(C(=O)CNC(=O)Cn2ccc3ccccc3c2=O)C1 (stereo not drawn),0.263
22,Cn1cc(CN2CCC(N3CCNC(=O)CC3)CC2)c(-c2ccccc2F)n1,8.86
23,O=[N+]([O-])c1ccc(C(=S)N2CCCC2)cc1,7.25

row,Structure (SMILES),"hERG current change (%, negative = inhibition) at 1uM [%]"
1,COc1cc(NC(=O)c2c(F)cccc2F)nc(OC)n1,12.4
2,CC1(C)Nc2ccc(O)cc2-c2c1ssc2=S,3.69
3,O=C1C2C3C=CC(C3)C2C(=O)N1Nc1ccccc1 (stereo not drawn),14.2
4,Cc1ccc(C(=O)N2CCN(c3ccc(NC(=S)NC(=O)c4cccs4)cc3)CC2)cc1,4.71
5,O=C(c1ccc(F)cc1)N(c1ccccn1)C1CCCCC1,-2.72
6,CCN1CCN(c2ccc(S(=O)(=O)N3CCOCC3)cc2NC(=O)c2ccccc2SC)CC1,-19.8
7,Cc1ccc(S(=O)(=O)Nc2cccc(-n3cnnn3)c2)cc1C(=O)O,2.49
8,CCOc1cc(Cl)c(S(=O)(=O)NCCCN2CCOCC2)cc1Cl,-16
9,COc1cccc(C2=CC(=O)CC(C)(C)C2)n1,12.7
10,O=C(O)CCCCCNS(=O)(=O)/C=C/c1ccccc1,11.2
11,Cn1c(=O)c2c(nc(Sc3ncnn3CC(=O)N3CCOCC3)n2C)n(C)c1=O,11.2
12,Cc1csc(N(C)C(=O)CSc2nnc(COc3ccccc3C)o2)n1,6.62
13,O=S(=O)(NCC(c1cccnc1)N1CCN(c2ccc(F)cc2)CC1)c1ccc(F)cc1 (stereo not drawn),-31.3
14,CCn1nnc(NC(=O)COc2ccc(C3CCCCC3)cc2)n1,7.38
15,CCCC1c2ccsc2CCN1C(=S)NC (stereo not drawn),8.22
16,O=S(=O)(NCCc1cn2ccccc2n1)c1ccc(-c2ccccc2)cc1,-11.6
17,COc1cc(Cl)ccc1OCc1cc(C(=O)N(C)CC2CCCCO2)no1 (stereo not drawn),2.24
18,CCOC(=O)C(Cc1ccc(Cl)cc1Cl)c1ccno1 (stereo not drawn),11.3
19,CC(=O)Nc1ccc2c(c1)CCCC2=O,13.1
20,Cc1cccc(Oc2ncnc3onc(C)c23)c1C,15.8
21,NS(=O)(=O)c1cccc(NC(=O)CSc2nn(-c3ccccc3)c(=S)s2)c1,4.06
22,CCCCOC(=O)C(C)Sc1n[nH]c(=O)[nH]c1=O (stereo not drawn),16.3
23,N#CC12COC3(CCCCC3C1(C#N)C#N)OC2=N (stereo not drawn),8.2

row,Structure (SMILES),"hERG current change (%, negative = inhibition) at 1uM [%]"
1,C/C(=N/N1CCN(c2ccccc2)CC1)c1cccc([N+](=O)[O-])c1,8.81
2,COc1ccc(CCNC(=O)CSc2nc3[nH]c(=O)cc(O)c3s2)cc1,5.25
3,CN1CCN(C(=O)OC2c3nccnc3C(=O)N2c2ccc(Cl)cn2)CC1 (stereo not drawn),14.1
4,O=C(CCCSc1nc2ccccc2s1)Nc1nccs1,-2.02
5,O=C(O)CNC(=O)c1ccccc1F,0.871
6,COC(=O)/C=C1\SC(=Nc2ccccc2)NC1=O,14.9
7,COc1cccc(CNC(=O)c2cccnc2Sc2ccccc2)c1,14.2
8,COC(=O)c1ccccc1NC(=O)CN(c1cc(OC)ccc1OC)S(C)(=O)=O,0.279
9,CN(CCC#N)C(=O)COC(=O)c1ccc2[nH]c3c(c2c1)CCCC3,14.9
10,CCN(CC)S(=O)(=O)c1ccc2nc(SC)sc2c1,13.2
11,C#CCOCCOCCOCCNc1nc(N2CCOCC2)nc(N2CCN(C(=O)CCCCCCCCCCNC(=O)[C@@H](CCC(=O)O)n3cc(CCCCCN)nn3)CC2)n1,14.2
12,CCOC(=O)N1CCC(N2CC34C=CC(O3)C(C(=O)Nc3ccc(F)cc3)C4C2=O)CC1 (stereo not drawn),0.228
13,COc1ccc(Cc2noc(CN(C)C3CC(C)(C)NC(C)(C)C3)n2)cc1OC,13.6
14,CCn1cc(-c2cc(C(=O)O)c3ccccc3n2)c(C)n1,17.9
15,CCCCOc1cccc(C(=O)NNC(=S)NC2CCCCC2)c1,8.24
16,O=C(N/N=C/C(Br)=C/c1ccccc1)c1ccc([N+](=O)[O-])cc1,14.9
17,CC1(C)C2CCC1(C)C(OC(=O)CC(=O)O)C2 (stereo not drawn),6.23
18,COc1cccc(OC)c1C1=NCC(=O)Nc2c1oc1ccc(Br)cc21,-17.7
19,O=C(CC12CC3CC(CC(Br)(C3)C1)C2)NCc1ccccc1,3.51
20,Cc1nnc(NC(=O)c2oc3ccccc3c2C)s1,16.5
21,COc1ccc(C(CNC(=O)c2ccc3c(c2)C(=O)N(CCC(C)C)C3=O)N2CCOCC2)cc1 (stereo not drawn),8.5
22,COC(=O)C1CCN(C(=O)Cc2ccccc2OC)CC1,15.5
23,COc1ccc(-n2nc(C(=O)NCc3ccco3)c3c4ccccc4n(C)c3c2=O)cc1,5.12

row,Structure (SMILES),"hERG current change (%, negative = inhibition) at 1uM [%]"
1,O=C(N/N=C/c1cc([N+](=O)[O-])ccc1O)c1ccc2c(c1)OCCO2,11.8
2,CN(c1nc2ccccc2nc1Cl)S(=O)(=O)c1ccccc1,0.387
3,CCN1CCCC1CNC(=O)C(=O)Nc1cccc(OC)c1 (stereo not drawn),9.44
4,Cc1ccc(NS(=O)(=O)c2ccc3c(c2)OCCCO3)cc1S(=O)(=O)N1CCOCC1,13.3
5,O=C(NC1CCCC1)c1nc2c(nnn2Cc2ccccc2Cl)c(=O)[nH]1,7.94
6,CCOc1ccc(NC(=O)CCC(=O)N/N=C/c2ccc3c(c2)OCO3)cc1,20.8
7,CCCc1nc2c(=O)n(C)c(=O)[nH]c2n1CCC,3.2
8,C[C@@H]1C(=O)O[C@@H]2[C@H](O)C34[C@@H]5OC(=O)C3(O[C@H]3OC(=O)[C@H](O)C34[C@H](C(C)(C)C)[C@H]5O)[C@@]12O (stereo partly drawn),18.5
9,CCOc1ccc(NC(=O)CSc2nnc(COc3c(C)cccc3C)o2)cc1,10.3
10,CCCn1c(SCC(=O)Nc2ccc3c(c2)OCO3)nc2c1c(=O)n(C)c(=O)n2C,10
11,CC(/C=C1\N=C(SCc2ccccc2)SC1=O)=C\c1ccccc1,16.6
12,NC1=NC[C@H](Cc2ccccc2)N1CC1CCCCC1,8.56
13,C/C(=N\Nc1ccccc1)c1cc2ccccc2oc1=O,11.8
14,CN(C)P1(N(C)C)=Nc2c(c(N)nn2C)C(c2ccccc2)=N1,7.71
15,CCCN(CCC)S(=O)(=O)c1ccc(NC(=O)Cc2cccs2)cc1,7.17
16,Nc1c(C=C2C=CC(=O)C=C2)c(=O)nc2sc(CC(=O)N3CCOCC3)nn12,15.2
17,COCCSc1ccccc1C(=O)N1CCc2ccccc2C1,14.1
18,O=C(COC(=O)C1(c2ccc(Cl)cc2)CCCC1)NCc1ccco1,2.67
19,Cc1occc1-c1nnc(SCC(=O)N2CCN(c3ccccc3)CC2)n1C,0.27
20,O=C(Nc1cc(S(=O)(=O)N2CCCCC2)ccc1Cl)c1ccncc1,-20.8
21,COc1ccc(Cl)cc1NC(=O)CN(C)C(=O)c1ccc(N2CCCCC2)c([N+](=O)[O-])c1,25
